Test results: US20230072897A1, “ANTI-B7-H4 ANTIBODY-DRUG CONJUGATE AND MEDICINAL USE THEREOF” (SHANGHAI HANSOH BIOMEDICAL CO., LTD., priority 2019, published 2023)

Biological target: T1, human huB7-H4-His protein (Homo sapiens, UniProt Q7Z7D3)
T1 construct: made in house; host or cells: 293T cells (pTT5 vector)
T1 sequence (Q7Z7D3 with tags, fused parts or gaps): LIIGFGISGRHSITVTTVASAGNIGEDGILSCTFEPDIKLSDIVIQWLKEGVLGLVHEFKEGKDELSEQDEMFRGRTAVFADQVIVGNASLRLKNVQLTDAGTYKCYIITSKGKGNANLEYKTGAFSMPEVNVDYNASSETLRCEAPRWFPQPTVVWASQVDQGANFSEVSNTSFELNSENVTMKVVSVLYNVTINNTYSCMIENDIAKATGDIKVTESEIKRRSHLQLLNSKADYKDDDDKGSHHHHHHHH
Experiment: Affinity kinetics experiment (Biacore T200)
Format: binding
Protocol: The Biacore method is a generally acknowledged method for objectively detecting the affinity and kinetics between proteins. The affinity and binding kinetics of the antibodies to be tested of the present invention were analyzed by Biacore T200 (GE). The anti-B7-H4 antibodies to be tested of the present invention were covalently linked to CM5 (GE) chips by using the kit provided by Biacore and the NHS standard amino coupling method. Then 50 nM of human huB7-H4-His protein diluted in the same buffer was injected at a flow rate of 10 uL/min. After the injection, the samples were all regenerated with the regeneration reagent in the kit. The antigen-antibody binding kinetics was tracked for 3 minutes and the dissociation kinetics was tracked for 10 minutes. The obtained data were analyzed with a 1:1 (Langmuir) binding model by using BIAevaluation software of GE.

B1: hu1C9: humanized anti-B7-H4 antibody, heavy chain SEQ ID NO: 41, light chain SEQ ID NO: 42 (antibody)
heavy: EVQLVQSGAEVKKPGASVKVSCKASGDTFTTYWMNWVRQAPGQRLEWMGGIYLNRGSSEYNEKFKGRVTLTVDTSASTAYMELSSLRSEDTAVYYCARDSRFSYWGQGTLVTVSS[no letters for human IgG1 constant region]
light: DIQMTQSPSSLSASVGDRVTITCKASQDVSTAVAWYQQKPGKAPKLLISSASYRYTGVPSRFSGSGSGTDFTFTISSLQPEDIATYYCQQHYNTPLTFGGGTKVEIKRTVAAPSVFIFPPSDEQLKSGTASVVCLLNNFYPREAKVQWKVDNALQSGNSQESVTEQDSKDSTYSLSSTLTLSKADYEKHKVYACEVTHQGLSSPVTKSFNRGEC
modifications: A synthetic hu1C9HC; A synthetic hu1C9 LC
Affinity to the human B7-H4 antigen protein (in words) (Biacore): strong affinity | Dissociation rate kd (antibody on CM5 chip, 50 nM huB7-H4-His, 1:1 (Langmuir) model): 1e-05 s⁻¹
